Assay results taken from publication PMC10668032.
This is one part of the list. At the low end of the ranking, values are background and their order means little.

target: SIX1 homeodomain (reference allele) (UniProt Q15475); assay: universal protein binding microarray; details: Universal all-10-mer PBM (8x60K, AMADID 030236), 300 nM GST-tagged protein, Alexa Fluor 488 anti-GST; buffer, salt, pH and temperature not stated; high values mean tight binding; most listed sequences are background and not binding sites; double strand, one strand shown

Sequence	binding signal [E-score]
GAATAGGA	0.0357
CCCCGAGA	0.113
GCTTCCGA	-0.0513
CTGGAAAG	-0.207
TCTTTGCA	-0.0858
ACAAAACG	-0.193
ACTCCCCT	0.22
AAAGTATT	0.13
CTCCGCAC	-0.153
GTATCCTA	0.409
ATTTACCC	0.0509
GATGCTGC	0.0718
GTTAATTA	-0.0179
ACGACACA	-0.0666
GGACTCCA	-0.161
CCGCTCAA	0.0831
AGAATTAT	-0.029
GTCCCAAA	-0.232
GGACCCAA	-0.0805
GCGTAAGA	-0.178
CTTGCGGA	-0.0932
GAACGATA	0.383

Sequence	binding signal [E-score]
GCTCCGCA	-0.282
AGAGCCAG	-0.159
GGACTTGA	-0.105
GATACATC	0.43
CCGTAAAC	0.0655
ATACCAGA	0.299
CTGGGAAG	-0.14
ATGATACG	0.48
AGTGAGAC	0.198
GAAAGCGC	-0.169
ACCCCGAG	0.235
CTAACTAA	-0.138
ATGCGTCC	-0.147
ACGGGTAC	0.0571
ACCCAACG	-0.158
ATCCCCAC	0.347
ATCTCATG	0.197
GCTTGAAA	-0.23
ATAGTAGG	0.107
CTGTGAAG	-0.0497
CCGCACGC	-0.127
ATAGCATC	0.158

Sequence	binding signal [E-score]
CGGCATCC	0.127
AGACCTTC	-0.0709
GGTTTGAC	-0.0831
AGAACCTC	-0.18
AAGTTGAC	-0.166
CGCCTCTA	-0.0629
AAGGTGTG	0.145
CCCGGCCC	0.0915
GGCTCATA	0.161
CGGAAAAA	-0.213
GGTGCGAC	-0.148
CCTAGAGC	-0.159
ATCGCGAT	0.334
CACGATCC	0.342
CGCATGGC	0.0215
GGTCTAGA	0.0895
CAACACGG	0.135
ACACAGCT	-0.139
CCGGTTCA	0.0726
CCTAGTGC	-0.141
AGTACGAG	0.0399
GATTGAGA	0.151

Sequence	binding signal [E-score]
GAGAGGGC	-0.094
CTGTTTGC	-0.124
ACGTTCGC	-0.265
ATAAGAAT	-0.0363
GTCAACGA	-0.152
CGTACGCC	-0.192
ACGCGCAT	0.0842
GGGCCTCA	-0.353
ATTTAAGA	-0.138
AGATCATA	0.323
ATGTCTGG	-0.00231
CGCCCTCA	-0.136
AACAACAT	-0.322
AATTACTA	-0.137
CCCTCGGC	-0.0499
AGTCCATA	-0.0497
AAGCGCTT	-0.108
AATGATCT	0.369
CTAGCCTC	-0.124
AAGTTACT	-0.142
AAACTCCT	-0.138
ACGCACGC	-0.0812

Sequence	binding signal [E-score]
CAATTTCA	-0.0969
CGCGTTTC	-5e-06
CAACCAAC	-0.19
GTTTCCAA	-0.245
AATAGGTC	-0.00413
AACGGAAT	-0.112
AAATAGCC	-0.118
AAACACGC	-0.142
CAAACCGC	-0.228
ACACTTCA	-0.128
GGACATAC	0.0292
ACGCGTTA	-0.224
AGCCCCGA	0.0188
AACAACAG	-0.199
CAACAAAC	0.0227
AACCTCCG	0.0149
AACTATAT	0.0676
TCTCCCAA	-0.0329
CTCAGTCA	-0.112
CACCGGAG	0.0409
CCCTTCAA	-0.107
